Data taken from the supplement of paper PMC10600219.
Structures can show the parent of a compound that is named as a salt. In all, about 2,800 compounds were measured (“cell viability relative to vehicle”: median about 1.1, lowest 2% from about 0.19 on). This is one part of the list.

tested on: NCI-H2228 parental; experiment: cell viability relative to vehicle (fraction of vehicle); NCI-H2228 is an ALK-positive lung cancer line and DTP means drug-tolerant persister; higher = less growth inhibition; conditions: 100 nM; treatment time 6 days
Outline: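 The 3114-agent TargetMol anti-cancer compound library was tested at 100 nM for 6 days on parental NCI-H2228 cells and on persister cells derived with 1000 nM of a targeted drug for 13 days. ATP readout by the CellTiter-Glo 3D Cell Viability Assay gave cell viability relative to DMSO vehicle-treated cells.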

SMILES | cell viability
O=C1NC(c2cccc([N+](=O)[O-])c2)=CCN1c1ccccc1O | 1.04
CC(=O)OCC(=O)[C@@]1(O)CC[C@H]2[C@@H]3CCC4=CC(=O)C=C[C@]4(C)[C@H]3[C@@H](O)C[C@@]21C [Prednisolone-21-acetate] | 1
C[C@H]1C[C@H]2[C@@H]3CCC4=CC(=O)C=C[C@]4(C)[C@H]3C(=O)C[C@]2(C)[C@@]1(O)C(=O)CO [Meprednisone] | 1.13
Cc1ccc(S(=O)(=O)OCC(=O)Nc2ccc(C(=O)O)c(O)c2)cc1 | 0.969
Cc1nnc(NC(=O)c2nc(S(=O)(=O)Cc3ccc(F)cc3)ncc2Cl)s1 | 1.06
O=C(O)CCCN1CCC(O[C@@H](c2ccc(Cl)cc2)c2ccccn2)CC1 [Bepotastine Besilate] | 1.11
O=C(Nc1ncc(SCCN2CCCC2)s1)[C@]1(c2ccc(S(=O)(=O)C3CC3)cc2)C[C@H]1C1CCCCC1 | 1.16
COc1ccc(/C=C/c2cc(O)cc(O[C@@H]3O[C@H](CO)[C@@H](O)[C@H](O)[C@H]3O)c2)cc1O [Rhaponiticin] | 1.11
NNC(=O)c1ccncc1 [Isoniazid] | 1.01
COc1ccc(-c2ccc3cc(C(=O)O)ccc3c2)cc1C12CC3CC(CC(C3)C1)C2 [Adapalene] | 0.681
COc1cc2c(NC3CCN(CC4CCCCC4)CC3)nc(N3CCCN(C(C)C)CC3)nc2cc1OCCCN1CCCCC1 | 0.981
Nc1cc(C(F)(F)F)c(-c2nc(N3CCOCC3)nc(N3CCOCC3)n2)cn1 | 0.69
CC(=O)O[C@@H]1C[C@H](O)[C@@]23CO[C@@H](O)[C@]1(C)[C@@H]2C[C@@H](O)[C@]1(C)[C@@H]3C(=O)[C@H](OC(C)=O)[C@@]2(C)[C@H](c3ccoc3)C[C@H]3O[C@]321 [Toosendanin] | 0.147
Cc1cc(=O)c(C(=O)N[C@@H](C(=O)N[C@@H]2C(=O)N3C(C(=O)O)=C(CSc4nnnn4C)CS[C@H]23)c2ccc(O)cc2)c[nH]1 [Cefpiramide acid] | 1.08
O=c1[nH]c(=O)n([C@H]2C[C@H](O)[C@@H](CO)O2)cc1I [Dendrid] | 1.2
COc1cc2c(cc1OC)CN(C(=O)[C@@H](NCc1ccncc1)C(C)(C)C)CC2 | 1.01
CN1CCN(c2ccc3nc(-c4c(N)c5c(F)cccc5[nH]c4=O)[nH]c3c2)CC1 [Dovitinib] | 0.968
N[C@@H](COP(=O)(O)O)C(=O)O [Phosphoserine] | 0.97
CCCCC/C=C\C/C=C\CCCCCCCC(=O)O [Linoleic acid] | 0.996
Cc1cccc(N(C)C(=S)Oc2ccc3ccccc3c2)c1 [Tolnaftate] | 1.1
CC(C)c1nc(CN(C)C(=O)N[C@@H](CCN2CCOCC2)C(=O)N[C@H](CC[C@H](Cc2ccccc2)NC(=O)OCc2cncs2)Cc2ccccc2)cs1 [Cobicistat] | 1.14
Cc1cccc(-c2nn3c(c2-c2ccnc4ccc(C(N)=O)cc24)CCC3)n1 [Galunisertib] | 1.01
O=C(Nc1cccnc1)N1CCC(Cc2cccc(Oc3ccc(C(F)(F)F)cn3)c2)CC1 | 1.05
O=C(Nc1ccc([N+](=O)[O-])cc1Cl)c1cc(Cl)ccc1O [Niclosamide] | 0.961
CCOc1ccc(Cc2nccc3cc(OCC)c(OCC)cc23)cc1OCC [Ethaverine hydrochloride] | 1.1

SMILES | cell viability
Cc1cc(C)nc(NS(=O)(=O)c2ccc(NC(=S)NC(=O)COc3ccc(Br)cc3Cl)cc2)n1 | 0.924
NC[C@H]1OB(O)c2c(OCCCO)cccc21 [Epetraborole hydrochloride] | 1.14
CN1C(C(=O)Nc2ccccn2)=C(O)c2sc(Cl)cc2S1(=O)=O [Lornoxicam] | 1.3
OC[C@H]1O[C@@H](Oc2cc(O)cc(/C=C/c3ccc(O[C@@H]4O[C@H](CO)[C@@H](O)[C@H](O)[C@H]4O)cc3O)c2)[C@H](O)[C@@H](O)[C@@H]1O [Mulberroside A] | 1.07
C/C(=N\NC(=O)c1cccc(S(=O)(=O)N2CCN(C)CC2)c1)c1cc(Cl)ccc1O [Seclidemstat] | 0.936
COc1ccc(-c2cc(=O)c3c(OC)c(OC)c(OC)c(OC)c3o2)cc1 [Tangeretin] | 1.15
O=C(O)c1ccc(C=C2SC(=S)N(c3cccc(C(F)(F)F)c3)C2=O)cc1 | 1.25
O=C1N=c2ccccc2=C1c1c(O)[nH]c2ccccc12 [Isoindigotin] | 1.07
N#Cc1c(Oc2ccc(F)c(NC(=O)Cc3cccc(C(F)(F)F)c3)c2)ccc2nc(NC(=O)C3CC3)sc12 | 1.07
CC(C)=CCc1cc2c(cc1O)O[C@H](c1ccc(O)cc1)CC2=O [Bavachin] | 1.03
CCc1nc2c(C)cc(N3CCN(CC(=O)N4CC(O)C4)CC3)cn2c1N(C)c1nc(-c2ccc(F)cc2)c(C#N)s1 | 1.14
CC1(C)C=Cc2c(ccc3c2OC[C@@H](c2ccc(O)cc2O)C3)O1 [Glabridin] | 1.05
O=c1cc[nH]c(=O)[nH]1 [Uracil] | 1.13
O=C(NCc1ccc(S(=O)(=O)c2cc(F)cc(F)c2)cc1)c1ccc2nccn2c1 | 0.117
Cc1ccc(C(=O)Nc2cccc(C(F)(F)F)c2)cc1Nc1nc(-c2cccnc2)nc2c1cnn2C | 1.06
COc1ccc(-c2cc(=O)c3c(OC)c(OC)c(OC)c(OC)c3o2)cc1OC [Nobiletin] | 1.25
O=C(O)CCc1nc2ccccc2[nH]1 [Procodazole] | 1.04
NCc1c[nH]c(=S)n1[C@H]1CCc2c(F)cc(F)cc2C1 [Nepicastat HCl] | 1.09
CCCc1nc(C(C)(C)O)c(C(=O)OCc2oc(=O)oc2C)n1Cc1ccc(-c2ccccc2-c2nnn[nH]2)cc1 [Olmesartan Medoxomil] | 1.41
Cn1c(=O)c2c(ncn2CC(O)CO)n(C)c1=O (centres undefined) [Diprophylline] | 1.1
CC(C)C[C@H](N)C(=O)O [L-Leucine] | 0.952
OCc1ccc(-c2nn(Cc3ccccc3)c3ccccc23)o1 [Lificiguat] | 0.894
NC(=O)c1cccnc1 [Nicotinamide] | 1.23
CNC1(C)C2CCC(C2)C1(C)C (centres undefined) [Mecamylamine hydrochloride] | 1.12
